# Experimental data: a collection of fitness landscapes (doi:10.1126/science.1257360)
# Some of the results follow.
# B1: PhoQ; a variant is named by its letters at X, in order, P23837 (parent)
# chain: MKKLLRLFFPLSLRVRFLLATAAVVLVLSLAYGMVALIGYSVSFDKTTFRLLRGESNLFYTLAKWENNKLHVELPENIDKQSPTMTLIYDENGQLLWAQRDVPWLMKMIQPDWLKSNGFHEIEADVNDTSLLLSGDHSIQQQLQEVREDDDDAEMTHSVAVNVYPATSRMPKLTIVVVDTIPVELKSSYMVWSWFIYVLSANLLLVIPLLWVAAWWSLRPIEALAKEVRELEEHNRELLNPATTRELTSLVRNLNRLLKSERERYDKYRTTLTDLTHSLKTPLXXLQXXLRSLRSEKMSVSDAEPVMLEQISRISQQIGYYLHRASMRGGTLLSRELHPVAPLLDNLTSALNKVYQRKGVNISLDISPEISFVGEQNDFVEVMGNVLDNACKYCLEFVEISARQTDEHLYIVVEDDGPGIPLSKREVIFDRGQRVDTLRPGQGVGLAVAREITEQYEGKIVAGESMLGGARMEVIFGRQHSAPKDE
# Variants of: B1
# Assay: enrichment ratio after two sorts for PhoP signalling (ratio (wild type AVST 3.29)); higher = more functional
# Conditions: with PhoP (E. coli)
row,Variant,enrichment ratio
1,VNEN,≤ 0.25
2,FSVI,7.81
3,KYAC,≤ 0.25
4,IPLI,≤ 0.25
5,NLRL,≤ 0.25
6,AKER,≤ 0.25
7,RIKG,≤ 0.25
8,SINY,4.58
9,VDIQ,≤ 0.25
10,SRMH,3.42
11,TLQR,0.757
12,DYCC,≤ 0.25
13,SYGK,≤ 0.25
14,AVPN,≤ 0.25
15,TCPT,≤ 0.25
16,GWAQ,≤ 0.25
17,SWQM,≤ 0.25
18,EVCL,≤ 0.25
19,YCCF,≤ 0.25
20,GYPA,≤ 0.25
21,RYFE,≤ 0.25
22,MHRT,≤ 0.25
23,NWMP,≤ 0.25
24,MKHS,≤ 0.25
25,DVHF,≤ 0.25

row,Variant,enrichment ratio
1,QHDT,8.45
2,RFAK,≤ 0.25
3,GTAR,≤ 0.25
4,LYWY,≤ 0.25
5,FVNA,≤ 0.25
6,HYCN,≤ 0.25
7,YGQP,≤ 0.25
8,GSDP,≤ 0.25
9,ELYS,≤ 0.25
10,AYCP,≤ 0.25
11,GGCP,≤ 0.25
12,RWVH,≤ 0.25
13,ADSD,≤ 0.25
14,HQYL,≤ 0.25
15,ADMN,≤ 0.25
16,ITSG,≤ 0.25
17,PKRE,≤ 0.25
18,YNSF,≤ 0.25
19,QPLD,≤ 0.25
20,KNDI,≤ 0.25
21,WLCF,≤ 0.25
22,QHQH,≤ 0.25
23,VHCG,≤ 0.25
24,NGMA,≤ 0.25
25,THRK,≤ 0.25

row,Variant,enrichment ratio
1,YDSY,≤ 0.25
2,YWFK,≤ 0.25
3,CLPF,≤ 0.25
4,PPGP,≤ 0.25
5,MNWP,≤ 0.25
6,GFPS,≤ 0.25
7,HNYY,≤ 0.25
8,KAVG,≤ 0.25
9,TDHF,≤ 0.25
10,AWRH,≤ 0.25
11,HITS,≤ 0.25
12,MGIF,≤ 0.25
13,RHAH,≤ 0.25
14,EQSM,≤ 0.25
15,RNRN,≤ 0.25
16,RTGK,≤ 0.25
17,WNFA,≤ 0.25
18,FLHE,≤ 0.25
19,LSRE,≤ 0.25
20,VQKR,≤ 0.25
21,ADVM,6.88
22,GTST,0.355
23,QGMV,23.6
24,YDKA,≤ 0.25
25,PYIW,≤ 0.25

row,Variant,enrichment ratio
1,WHIY,≤ 0.25
2,HDTV,≤ 0.25
3,YVHL,≤ 0.25
4,GFCL,≤ 0.25
5,HTGP,≤ 0.25
6,DCQL,4.02
7,STWC,0.489
8,RTTN,≤ 0.25
9,MIPT,≤ 0.25
10,PMEP,≤ 0.25
11,ELDW,≤ 0.25
12,LLFH,≤ 0.25
13,FCDA,≤ 0.25
14,ETAM,≤ 0.25
15,QPSE,≤ 0.25
16,MVHL,1.82
17,NHDP,≤ 0.25
18,KCNH,≤ 0.25
19,FWRG,≤ 0.25
20,AVTP,≤ 0.25
21,NAFM,≤ 0.25
22,RLFV,≤ 0.25
23,DMNT,≤ 0.25
24,QGGQ,8.17
25,IFCD,≤ 0.25

row,Variant,enrichment ratio
1,SLQW,≤ 0.25
2,ICSQ,≤ 0.25
3,LKVN,≤ 0.25
4,DIVW,≤ 0.25
5,RKRH,≤ 0.25
6,PPTK,≤ 0.25
7,FEAL,≤ 0.25
8,SSEV,0.388
9,NEDH,≤ 0.25
10,TKDH,≤ 0.25
11,TLWW,≤ 0.25
12,QPRK,≤ 0.25
13,RLKM,≤ 0.25
14,GWCY,≤ 0.25
15,IPDS,≤ 0.25
16,GWQL,≤ 0.25
17,ASPR,≤ 0.25
18,VNIW,≤ 0.25
19,SGHF,≤ 0.25
20,IGKR,≤ 0.25
21,TCSI,23.8
22,HGKM,≤ 0.25
23,KGNT,≤ 0.25
24,DIFN,≤ 0.25
25,IKED,≤ 0.25

row,Variant,enrichment ratio
1,DTHN,≤ 0.25
2,WVSK,≤ 0.25
3,MFSV,≤ 0.25
4,PKYD,≤ 0.25
5,VGDC,≤ 0.25
6,PNGP,≤ 0.25
7,KHCP,≤ 0.25
8,IWPP,≤ 0.25
9,RMEI,≤ 0.25
10,KKPF,≤ 0.25
11,VCVP,≤ 0.25
12,SIPT,≤ 0.25
13,PMST,≤ 0.25
14,AYSY,≤ 0.25
15,FRHS,≤ 0.25
16,FLSG,0.291
17,CSIK,≤ 0.25
18,TDNR,≤ 0.25
19,ARSI,≤ 0.25
20,TSIS,1.37
21,RAAC,≤ 0.25
22,YLGN,≤ 0.25
23,KCSF,≤ 0.25
24,GYGC,≤ 0.25
25,WPEP,≤ 0.25

row,Variant,enrichment ratio
1,FRPT,0.275
2,NNPQ,≤ 0.25
3,MFNP,≤ 0.25
4,WDLA,≤ 0.25
5,RKMD,≤ 0.25
6,QRQV,≤ 0.25
7,MNDE,≤ 0.25
8,RGEV,≤ 0.25
9,HTNP,≤ 0.25
10,RGCW,≤ 0.25
11,SIEG,≤ 0.25
12,TIVM,≤ 0.25
13,TGPG,≤ 0.25
14,DQHC,≤ 0.25
15,ELYH,≤ 0.25
16,KERP,≤ 0.25
17,PQLA,≤ 0.25
18,TFQD,≤ 0.25
19,FFYR,≤ 0.25
20,NCIY,≤ 0.25
21,YWYD,≤ 0.25
22,YHYL,≤ 0.25
23,LHRP,≤ 0.25
24,IEVM,≤ 0.25
25,VKRQ,≤ 0.25

row,Variant,enrichment ratio
1,SDHW,≤ 0.25
2,MQYP,≤ 0.25
3,EMEH,≤ 0.25
4,VNNF,≤ 0.25
5,PNLR,≤ 0.25
6,YAMT,≤ 0.25
7,VALP,≤ 0.25
8,KLWY,≤ 0.25
9,WSVD,≤ 0.25
10,SLPK,≤ 0.25
11,RYKP,≤ 0.25
12,FVTY,≤ 0.25
13,RNWE,≤ 0.25
14,TLKF,≤ 0.25
15,SMKG,≤ 0.25
16,IVSA,≤ 0.25
17,HRQL,≤ 0.25
18,WQKS,≤ 0.25
19,VCKG,≤ 0.25
20,NWMS,≤ 0.25
